The results in this text go back to the RNAGym collection of RNA variant scans (doi:10.1101/gad.245936.114).

The chains are these.
B1: tRNA (parent)
chain: CUCUCGGUAGCCAAGUUGGUUUAAGGCGCAAGACUUUAAUUUAUCACUACGAAAUCUUGAGAUCGGGCGUUCGACUCGCCCCCGGGAGAUUUUUUCCUCGAGCAA

Variants at the background level are over-represented here.

The data set covers variants of B1. Briefly: nonsense suppression (GFP-seq) (ratio to wild type); higher = more function; SUP4oc tRNA, yeast GFP reporter sort-seq. In outline:
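Yeast were grown in raffinose/galactose medium with 80 mg/L adenine, each strain bearing a genome-integrated ochre-suppressor tRNA variant from a ~3% random-mutation library, a galactose-driven GFP ochre reporter, and RFP. After sorting into GFP/RFP bins, every bin was sequenced on an Illumina platform at phred ≥30. The GFPSEQ value, a measure of nonsense suppression, is the weighted bin median GFP/RFP relative to the unmutated parent tRNA, using each variant's estimated cell share per bin as the weight. Only variants with ≥100 reads and ≥30 cells were included.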
In the case of CUCUCGGUAGGCAAGUUGGUUUAAGGCGCAAGACUUUAAUUUAUCACUACGAAAUCUUGAGAUCGGGCGUUCGACUCGCCCGCGGGAGAUUUUUUCCUCGAGCAA, the nonsense suppression is at most 0.026.

CUCUCGGUAGCCAAGUUGGUUUAAGGCGGAAGACUUUAAUUUAUCACUACGAAAUCUUGAGAUCGGGCGUUCGACUCACCCCCGGGAGAUUUUUUCCUCGAGCAA: the nonsense suppression is at most 0.026.

In the case of CUCUCGGUAGCCAAGUUGGUUUAAGGCGCAAGGCUUUAAUUUAUCACUACGAAAUCUUGAGACCGGGCGUUCGAGUCGCCCCCGGGAGAUUUUUUCCUCGAGCAA, the nonsense suppression was at most 0.026.

On to CUCUCGGUAGCCACGUUGGUUUAAGGCGUAAGACUUUAAUUUAUCACUACGAAAUCUUGAGAUCGGGCGUUCGACUCGCCCCCGGGAGAUUUUUUCCUCGAGCAA, for which the nonsense suppression was at most 0.026.

Regarding CUCUCGGUAGCCAAGUUGGUUCAAGGCGCAAGACUUUAAUUUAUCACUACGAAAUCUUAAGAUCGGGCGUUCGACUCGCCCCCGGGGGAUUUUUUCCUCGAGCAA, the nonsense suppression is at most 0.026.

Take CUCUCGGUAGCCAAGUUGGUUUAAGGCGCAAGACUUUAAUUUAUCACUACGAAAUCUUGAGAUCGGGCGCUCGACACGCCCCCGGAAGAUUUUUUCCUCGAGCAA: the nonsense suppression was at most 0.026.

For the variant CUCUCGGUAGCCAAGUUGGUUUAUGGCGCAAGACUUUAAUUUAUCACUACGAAAUCUAAAGAUCGGGCGUUCGACUCGCCCCCGGGAGAUUUUUUCCUCGAGCAA, the nonsense suppression was at most 0.026.

Regarding CUCUCGGUAGCGAAGUUAGUUUAAGGCGCAAGACUUUAAUUUAUCACUACGAAAUCUUGAGAUCGGGCGUUCGACUCGCCCCCGGGAGAUUUUUUCCUCGAGCAA, the nonsense suppression was at most 0.026.

Turning to CUCUCGGUAGCCAAGUUGGUUUAAGGCGCAAGACUUUAAUUUAUCACUACGAAAUCUUGAGAUCGGGAGUCCGACUCGACCCCGGGAGAUUUUUUCCUCGAGCAA, the nonsense suppression was at most 0.026.

In the case of CUCUCGGUAGCCAAGUUGUUUUAAGGCGCAAGACGUUAAUUUAUCACUACGAAAUCUUGAGAUCGGGCCUUCGACUCGCCCCCGGGAGAUUUUUUCCUCGAGCAA, the nonsense suppression is at most 0.026.

For the variant CUCUCGGUAGCUAAGUUGGUUUAAGGCGCAAGACUUUAAUUUAUCACUACGAAAGCUUGAGAUCGGGCGGUCGACUCGCCCCUGGGAGAUUUUUUCCUCGAGCAA, the nonsense suppression is at most 0.026.

CUCUCGGUAGCCAAGUUGAUUUAAGGCGCAAGAAUUUAAUUUAUCACUACGAAAUCUAGAGAUCGGGCGUUCGACUCGCCCCCGGGAGAUUUUUUCCUCGAGCAA: the nonsense suppression was at most 0.026.

Turning to CUCUCGGUAGCAAAGUUGGUUUAAGGCGCAAGACUUUAAUUUAUCACUACGAAAUCUUGAGAUCGGGCGUGCGACUCGCCCCCGGGAGAUUUUUUCCUCGAGCAA, the nonsense suppression was at most 0.026.

Turning to CUCUCGGUGGCCAAGUUGCUUUAAGGCGCAAGGCUUUAAUUUAUCACUACGAAAUCUUGAGAUAGGCCGUUCGACUCGUCCCCGGGACAUUUUUUCCUCGAGCAA, the nonsense suppression was at most 0.026.

In the case of CUCUCGGUCGCCAAGUUGUUUUAAGGCGCAAGACUUUAAUUUAUCACUACGAAAUCUUGAGAUCGGGCGUUCGACUCGCCUCCGGGAGAUUUUUUCCUCGAGCAA, the nonsense suppression is at most 0.026.

Regarding CUCUCGCUAGCCAAGUUGGUUUCAGGCGCAAGACUUUAAUUUAUCACUACGAAAUCUUGAGAUAGGCCGUUCGACUCGCCCCCGGGAGAUUUUUUCCUCGAGCAA, the nonsense suppression was at most 0.026.

Take CUCUCGGUAGCCAAGUUGGUUAAAGGCGCAAGACUUUAAUUUAUCACUACGAAAUCCUGAGAUCGGUCGCUCGACUCGCCCCCGGGAGAUUUUUUCCUCGAGCAA: the nonsense suppression was at most 0.026.

With CUCUAGGUCGCCAAGUUGGUUUAGGGCGCAAGACUUUAAUUUAUCACUACGAAAUCUUGAGAUCGGGCGUUCGACUCGCCCCCGAGAGAUUUUUUCCUCGAGCAA, the nonsense suppression was at most 0.026.

As to CUCGCGGUAGCCAGGUUGGUUUAAGGCGCAAGACUUUAAUUUAUCACUACGAAAUCUUGAGAUCGGGCGUUCGACUCGCCCCCGGGAGAUUUUUUCCUCGAGCAA, the nonsense suppression was at most 0.026.

In the case of CUCUCGGUAGCCAAGUUGGUUUAAGGCACAAGACUUUAAUUUAUCACUACGAAAUGUUGAGAUCGGGCGCUCGACCCGGCCCCGGGAGGUUUUUUCCUCGAGCAA, the nonsense suppression was at most 0.026.

As for CUCUCGGUAGCCAUGUUGGUUUAAGGAGCAAGAUUUUAAUUUAUCACUACGAAAUCUUGAGAUCGGGCGUUCGACUCGCCCCCGGGAGAUUUUUUCCUCGAGCAA, the nonsense suppression was at most 0.026.

With CUCUCGGUAGCCAAGAUGGUUUAAGGCGCAAGACUUUAAUUUAUCACUACGAAAUCUGUUGAUCGGGCGUUCGACUCGCCCCCGGGAGAUUUUUUCCUCGAGCAA, the nonsense suppression is at most 0.026.

Regarding CUCUCGGUAGCCAAGUUGGUUUAAGGCGCAAGACUUUAAUUUAUCACUACGAAAUCUUAACAUCGGGCGUUCGACUCGCCCCCGGGAGAUUUUUUCCUCGAGCAA, the nonsense suppression is at most 0.026.

For CUCUCGGUAGCCAGGUUGGUUUAAGGCGCAAGACUUUAAUUUAUCACUACGAAAUCUUGAGUUCGGGCGUUAGACUCGCCCCCGGGAGAUUUUUUCCUCGAGCAA, the nonsense suppression is at most 0.026.

Consider CUCUCGGUAGCCAAGUUGGUUUAAGGCGCAGGACUUUAAUUUAUCACUACGAAAUCUUGAGAUCGGGCGUUCGACUCGCGCCCGUGAGAUUUUUUCCUCGAGCAA, for which the nonsense suppression was at most 0.026.

Turning to CUCUCGGUAGCCAAGUUAGUUUAAGGCGCAAGACUUUAAUUUAUCACUACGAAAUCUUGAGAUCGGGCGUUCGACUAGCCCCCGGGAGAUUUUUUCCUCGAGCAA, the nonsense suppression is at most 0.026.

Take CUCACGGUAGCCAAGUUGGUUUUAGGCGCAAGACUUUAAUUUAUCACUACGAAAUCUUGAGAUCGGGCGUUCGACUCGCCUCCGGGAGAUUUUUUCCUCGAGCAA: the nonsense suppression was at most 0.026.
